Laboratory results reported in PubChem BioAssay AID1240 (Sanford-Burnham Center for Chemical Genomics, 2008).
In all, about 50,000 compounds went through this assay and about 800 (1.6%) showed an effect of 50% or more. This is one part of the list.

molecular target: Bcl-2-like protein 10 (Homo sapiens) (UniProt Q9HD36); assay: TR3 peptide-Bcl-B binding displacers, biochemical primary FP assay, phenotype converters (AID 1240); details: GST-Bcl-B / FITC-TR3 peptide fluorescence polarization; stronger effect = higher value; compound at 3.75 mg/L;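 also: 0% = Bcl-B with tracer peptide and DMSO and 100% = tracer peptide lacking Bcl-B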
UniProt Q9HD36, sequence (Q9HD36 whole entry, looked up): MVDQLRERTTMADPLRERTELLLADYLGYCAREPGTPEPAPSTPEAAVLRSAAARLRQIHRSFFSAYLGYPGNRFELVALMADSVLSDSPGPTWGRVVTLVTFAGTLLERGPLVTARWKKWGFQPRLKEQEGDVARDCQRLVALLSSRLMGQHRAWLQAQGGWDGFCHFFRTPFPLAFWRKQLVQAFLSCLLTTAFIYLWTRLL

SMILES | displacement [%]
S=c1[nH]nc(COc2ccc(Cl)cc2Cl)n1-c1ccccc1 | -7.2
O=C1CC(NCc2ccc3c(c2)OCO3)C(=O)N1c1ccc(F)cc1 (stereo not given) | -7.8
Cc1cc(C(=O)Nc2ccc(N(C)C)cc2)c(C)o1 | 11.9
CC(=O)Oc1ccc(N2C(=O)C3CC(C)=C(C)CC3C2=O)cc1 (stereo not given) | 11
COc1cc2c(cc1NS(=O)(=O)c1cccc([N+](=O)[O-])c1)oc1ccccc12 | 6.8
CCc1c(C)sc(NC(=O)c2cccc([N+](=O)[O-])c2)c1C(N)=O | 18.2
COc1cccc(CN2CCN(C3CC4CCC3C4)CC2)c1OC (stereo not given) | -12
COc1ccc(C(=O)Nc2ccc(N3CCCCC3)cc2)cc1[N+](=O)[O-] | 2.7
O=C(COc1ccc2ccccc2c1)NCC1CCCO1 (stereo not given) | 12.6
Cc1ccccc1Oc1nc2ccccc2n2cnnc12 | -14.3
Cc1ccc(-n2nc3cc(C)c(NC(=O)COc4ccccc4C)cc3n2)cc1 | -3.1
COc1ccc(CCNC(=O)CN(c2ccc(F)cc2)S(=O)(=O)c2ccccc2)cc1OC | -2.9
Cc1cc(=O)oc2cc(OCC(=O)OCc3ccccc3)ccc12 | -0.9
CN1C(=O)/C(=C\c2cn(Cc3ccc(F)cc3)c3ccccc23)SC1=S | 14.9
CCc1cc2c(=O)c(-c3nc4ccccc4n3C)c(C)oc2c(CN2CCN(C)CC2)c1O | 10.8
COCCNC(=O)C(=O)Nc1cc(OC)ccc1OC | 10.6
C=CCOc1ccc(/C=C/C(=O)c2ccc(F)cc2)cc1OC | 20.2
CC(=O)c1ccc(NC(=O)c2ccc3c(c2)C(=O)N(N2C(=O)c4ccccc4C2=O)C3=O)cc1 | 42.1
CC(=O)Oc1cccc(C(=O)Nc2ccc(-c3nc4ccccc4o3)cc2)c1 | 3.1
COCCCNC(=O)c1ccc([N+](=O)[O-])cc1 | -6.7
O=C1CCCc2c1[nH]c1ccc(CN3CCCCC3)cc21 | -4.1
Cc1cnnn1-c1ccc(C(=O)/C=C\c2ccco2)cc1 | 24.3

SMILES | displacement [%]
COc1cccc(C2C(C#N)=C(C)NC3=C2C(=O)CC(c2ccccc2)C3)c1OC (stereo not given) | 13.6
CCOc1cc(C2Nc3ccccc3NC3=C2C(=O)CC(c2ccccc2)C3)cc(Br)c1O (stereo not given) | -9.5
c1ccc(C2=C(c3ccccc3)N3CCN=C3S2)cc1 | 6.4
CC(=O)N1c2ccccc2C(C)=CC1(C)C | -6
CC1=C(C(=O)Nc2ccc(Br)cc2)C(c2ccccc2F)NC(=S)N1 (stereo not given) | 11.4
COc1cc(/C=N/NC(=O)Cc2nnc(N)s2)cc(OC)c1OC | 9
COc1ccc(C2Nc3ccccc3NC3=C2C(=O)CC(c2ccccc2)C3)cc1OC (stereo not given) | -10.5
Cc1ccc(N(CC(=O)Nc2cccc(C(F)(F)F)c2)S(=O)(=O)c2ccc(F)cc2)cc1 | 8.5
CC(C)NC(=O)C(=O)Nc1ccc2c(c1)OCCO2 | 2.1
O=C(Nc1ccc(Cl)cc1)C1CC(=O)N(c2cccc([N+](=O)[O-])c2)C1 (stereo not given) | 22.5
O=C(O)c1ccccc1SCCSc1ccccc1C(=O)O | 3.2
O=C1OC(c2sc3ccccc3c2Cl)=N/C1=C/c1ccccc1 | 10
N#C/C(=C\c1ccc(-c2ccc(Cl)cc2)o1)C(=O)Nc1ccccc1O | -1
O=[N+]([O-])c1ccc(NCCOCCO)c(Cl)c1 | -14.9
COc1ccc(NC(=O)CN(c2ccc(C(C)C)cc2)S(=O)(=O)c2ccccc2)c(OC)c1 | 0
O=C(CN1C(=O)c2ccccc2C1=O)Nc1ccc(O)cc1C(=O)O | -1.9
O=C1C(=O)N(CCCn2ccnc2)C(c2ccccc2F)/C1=C(\O)c1ccc(Cl)cc1 (stereo not given) | -1
CCOc1ccc(N(CC(=O)N2CCN(c3ccccc3)CC2)S(=O)(=O)c2ccccc2)cc1 | 40.7
O=C(NCCN1CCN(C(=O)c2ccc(Cl)cc2)CC1)c1ccc(Cl)cc1 | -3.6
Nc1nc2ccccc2n1C(=O)c1c(Cl)cccc1Cl | 1.4
CN1C(=O)C(=Cc2cc(Br)c(O)c(I)c2)C(=O)N(C)C1=O | -7.9
Fc1cccc(Cl)c1Cc1noc(-c2ccccc2Br)n1 | 14.3

SMILES | displacement [%]
O=C1Nc2ccccc2/C1=N/N=C/c1ccc(-c2ccc(Cl)cc2)o1 | 0.9
O=C(NN1C(=O)/C(=C/c2cccnc2)SC1=S)C(c1ccccc1)c1ccccc1 | -18.1
Cc1ccc(-n2c(C)cc(C=C3C(=O)NC(=S)NC3=O)c2C)cc1C | 0.1
CN1CCN(c2cc(N3CCN(CCO)CC3)ccc2[N+](=O)[O-])CC1 | 4.7
Cc1ccccc1OCC(=O)Nc1ccc(-c2nc3ccccc3[nH]2)cc1 | 11.8
CC(CO)(CO)NC(=O)C(F)(F)C(F)(F)C(=O)NC(C)(CO)CO | -0.3
Cc1ccc(NC(=O)CSc2nnc(-c3ccccc3)c(-c3ccccc3)n2)cc1 | -1.6
CCn1c(SCC(=O)N/N=C/C=C/c2ccccc2)nc2ccccc21 | -11.6
CCOc1cc(Br)c(Br)c(/C=C2/SC(=O)NC2=O)c1O | -10.9
COc1cccc(NC(=O)c2c(-c3c(Cl)cccc3Cl)noc2C)c1 | 10.2
COc1cc2nc(-c3ccc([N+](=O)[O-])c(C)c3)oc(=O)c2cc1OC | -11.4
Cc1ccccc1NC(=O)c1ccco1 | 14
Cc1ccc([N+](=O)[O-])cc1-c1ccc(/C=C2/C(=O)NC(=O)N(c3ccccc3)C2=O)o1 | 82.8
COC(=O)C1=C(C)N(c2ccc(C)c(C)c2)/C(=C\c2ccc(OCC(=O)Nc3ccccc3OC)cc2)C1=O | 68
COc1ccc(N(CC(=O)Nc2cccc(Cl)c2)S(=O)(=O)c2ccc(C)cc2)c(OC)c1 | 6.8
Cc1ccc(C)c(NC(=O)CN(c2cc(Cl)cc(Cl)c2)S(C)(=O)=O)c1 | 0.1
CCOC(=O)c1sc(NC(=O)C2COc3ccccc3O2)c(C(=O)OCC)c1C (stereo not given) | 0.2
Cc1cccc(C(C)C)c1NC(=O)Nc1cccc(Cl)c1 | -2
CCCCc1nc(N)c(C#N)c(-c2cccc(Br)c2)c1CCC | 44.9
Cc1ccc(NC(=O)c2c(C)nc3ccccn23)cc1 | 26.7
Cc1ccc(C2SCC(=O)N2c2ccc(Cl)c(Cl)c2)cc1 (stereo not given) | 12.9
CCOc1ccc(S(=O)(=O)N(CC(=O)Nc2ccccc2C)c2ccc(C)cc2)cc1 | 5.2

SMILES | displacement [%]
O=C(Cc1ccccc1[N+](=O)[O-])N1CCN(c2ccc(F)cc2)CC1 | 11.4
C=CCNC(=O)c1cnn(-c2ccccc2)c1NC(=O)c1ccccc1Cl | 1.9
O=C(Nc1ccccc1C(F)(F)F)C12CC3CC(CC(C3)C1)C2 | -4.2
CCCCOC(=O)c1ccc(NC(=O)c2cc([N+](=O)[O-])ccc2Br)cc1 | 10.6
CCOC(=O)c1sc(NC(=O)c2ccc(Br)o2)c(C(N)=O)c1C | 12.9
COc1ccc(CNC(=O)/C=C/c2ccccc2)cc1 | 12.3
COc1ccccc1N1CCN(C(=O)c2nn3c(c2Cl)NC(c2ccc(Br)cc2)CC3C(F)(F)F)CC1 (stereo not given) | 10
Cc1cccc(C)c1NC(=S)NC(=O)c1ccccc1 | -5.1
O=C(CSc1cccc2cccnc12)Nc1ccccc1 | -3.3
COc1ccc2c(-c3ccccc3)cc(=O)[nH]c2c1 | -6.2
COc1ccc(N2C(=O)NC(=O)/C(=C\c3ccc(O)c(Cl)c3)C2=O)cc1 | 12.1
COc1ccc(C(=O)N2CCN(C3CCCCC3)CC2)cc1 | 1
CC(O)c1ccc(NC(=O)c2cnn3c2NC(c2ccc(F)cc2)CC3C(F)(F)F)cc1 (stereo not given) | 3
Cc1cc(N2C(=O)NC(=O)/C(=C\c3sccc3C)C2=O)ccc1Br | -20.8
O=C(COc1ccc(Br)cc1)NCc1ccccn1 | 0
CCOC(=O)c1c(N)sc(C(=O)N(C)Cc2ccccc2)c1C | 2.9
Cc1ccc(NS(=O)(=O)c2cc(Cl)ccc2Cl)c(Br)c1 | 4.4
COc1ccccc1NC(=O)C1=C(C)NC(=S)NC1c1ccc(O)cc1 (stereo not given) | -7.2
COc1ccc(Br)cc1C(=O)Nc1cccnc1 | -4.7
c1cc2c(cc1CNC13CC4CC(CC(C4)C1)C3)OCO2 | 3.8
COc1ccc(OC)c(NC(=O)c2cccc(F)c2)c1 | -1.5
O=C(Cc1ccccc1)Nc1ccc(OC(F)(F)F)cc1 | -7.8

SMILES | displacement [%]
O=C(N/N=C/c1cccs1)C(=O)NC1CCCCC1 | 7.6
O=[N+]([O-])c1ccc2c(c1)S(=O)(=O)NC2=NCCC1=CCCCC1 | 9.7
Cc1ccccc1-c1nc2cc(Cl)ccc2o1 | 12.4
COc1ccc(C(=O)N(Cc2ccccc2)c2ccccn2)c(OC)c1 | 10.9
O=C1c2ccccc2C(=O)C1c1cccc2ccccc12 | 17.6
COc1cc(OC)c(/C=C2/SC(NC(C)=O)=NC2=O)cc1Br | 138
Cc1ccccc1C(=O)Nc1cccc(C(=O)Nc2ccccc2Cl)c1 | 2.3
Cc1nn(C(=O)Cc2ccccc2)c(C)c1Br | -3.2
Cc1ccc(C(=O)/C=C/c2c[nH]c3ccccc23)cc1 | 14.9
CS(=O)(=O)N1CCN(C(=O)COc2ccc(Cl)cc2)CC1 | -12.3
O=C1C2C3C=CC(CC3)C2C(=O)N1/N=C/c1ccccc1I (stereo not given) | -1.8
CC(C)(C)NCC(O)COc1ccccc1C(C)(C)C (stereo not given) | 1.1
O=C1C(=O)N(CCCn2ccnc2)C(c2cccc(F)c2)/C1=C(\O)c1ccc(Cl)cc1 (stereo not given) | -6
O=C(Cc1ccccc1)Nc1c(F)c(F)c(F)c(F)c1F | -10.4
C=COCCn1c(-c2nonc2N)nc2ccccc21 | 4.8
COc1ccc(N2C(=O)NC(=O)/C(=C\c3ccc(Br)s3)C2=O)cc1 | 1.1
CCOC(=O)C1=C(C)NC2=C(C(=O)CCC2)C1c1ccc2c(c1)OCO2 (stereo not given) | 4.2
CCOc1ccc2nc(SCC(=O)Nc3ccc4nc(SCC(=O)NC5CC5)sc4c3)sc2c1 | 0.3
Cc1ccc(/C=C/C(=O)Nc2cccc3ccccc23)o1 | -7.3
O=C(Nc1nc(-c2ccccc2)cs1)c1cc2ccccc2o1 | 11.2
O=C(COc1ccc2ccccc2c1)Nc1ccncc1 | 6.1
O=C(Nc1ccc(I)cc1)/C(=C\c1cccs1)NC(=O)c1ccccc1 | 0.6
